# Experimental data as given in paper PMC12820563.
# Some of the results follow. The list includes weakly bound sequences.
# Molecular target: T1, MBP-FoxP3dN (UniProt Q99JB6)
# T1 sequence: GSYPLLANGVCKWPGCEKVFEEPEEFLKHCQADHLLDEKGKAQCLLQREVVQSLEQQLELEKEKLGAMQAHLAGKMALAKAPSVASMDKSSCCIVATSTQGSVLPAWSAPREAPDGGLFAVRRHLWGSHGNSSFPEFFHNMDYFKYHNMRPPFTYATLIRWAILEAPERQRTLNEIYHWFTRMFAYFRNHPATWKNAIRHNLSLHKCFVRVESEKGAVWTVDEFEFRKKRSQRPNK
# Experiment: PD-seq (MBP pull-down with sequencing)
# Conditions: 20 mM Tris-HCl pH 7.5, 100 mM NaCl, 1.5 mM MgCl2, 0.4 uM protein, 0.1 uM dsDNA library, 30 min, room temperature, amylose pull-down; high values mean tight binding; double strand, one strand shown
row,Sequence,binding signal (RPM ratio (pull-down/input))
1,GATGATTGTTCTCCCAGCTGATGAATTTTAGGCTTCGAGTAAACAAATTTTCCTAATCTTTCTGTTCAAGCGCCATCTAC,0.367
2,GATGATTGTTCTCCCAGCTGATGAATTTCACAGATCGAGTAAACAAATTTTCCTAATCTTTCTGTTCAAGCGCCATCTAC,0.182
3,GATGATTGTTCTCCCAGCTGATGAATTACGAGAGTCGAGTAAACAAATTTTCCTAATCTTTCTGTTCAAGCGCCATCTAC,0.329
4,GATGATTGTTCTCCCAGCTGATGAATTAATGTCATCGAGTAAACAAATTTTCCTAATCTTTCTGTTCAAGCGCCATCTAC,0.999
5,GATGATTGTTCTCCCAGCTGATGAATTCTTTACTTCGAGTAAACAAATTTTCCTAATCTTTCTGTTCAAGCGCCATCTAC,0.373
6,GATGATTGTTCTCCCAGCTGATGAATTCTTTAGGTCGAGTAAACAAATTTTCCTAATCTTTCTGTTCAAGCGCCATCTAC,0.206
7,GATGATTGTTCTCCCAGCTGATGAATTGAACGGGTCGAGTAAACAAATTTTCCTAATCTTTCTGTTCAAGCGCCATCTAC,0.23
8,GATGATTGTTCTCCCAGCTGATGAATTTCCATCTTCGAGTAAACAAATTTTCCTAATCTTTCTGTTCAAGCGCCATCTAC,0.333
9,GATGATTGTTCTCCCAGCTGATGAATTCGAGGACTCGAGTAAACAAATTTTCCTAATCTTTCTGTTCAAGCGCCATCTAC,0.271
10,GATGATTGTTCTCCCAGCTGATGAATTAAGTGGTTCGAGTAAACAAATTTTCCTAATCTTTCTGTTCAAGCGCCATCTAC,1.15
11,GATGATTGTTCTCCCAGCTGATGAATTTACCCGATCGAGTAAACAAATTTTCCTAATCTTTCTGTTCAAGCGCCATCTAC,0.288
12,GATGATTGTTCTCCCAGCTGATGAATTCCTCGTTTCGAGTAAACAAATTTTCCTAATCTTTCTGTTCAAGCGCCATCTAC,0.296
13,GATGATTGTTCTCCCAGCTGATGAATTCAGCGTTTCGAGTAAACAAATTTTCCTAATCTTTCTGTTCAAGCGCCATCTAC,2.92
14,GATGATTGTTCTCCCAGCTGATGAATTAGCTCGATCGAGTAAACAAATTTTCCTAATCTTTCTGTTCAAGCGCCATCTAC,0.234
15,GATGATTGTTCTCCCAGCTGATGAATTTTGGGGCTCGAGTAAACAAATTTTCCTAATCTTTCTGTTCAAGCGCCATCTAC,0.319
16,GATGATTGTTCTCCCAGCTGATGAATTACCTCGATCGAGTAAACAAATTTTCCTAATCTTTCTGTTCAAGCGCCATCTAC,0.264

row,Sequence,binding signal (RPM ratio (pull-down/input))
1,GATGATTGTTCTCCCAGCTGATGAATTAATCGGATCGAGTAAACAAATTTTCCTAATCTTTCTGTTCAAGCGCCATCTAC,0.206
2,GATGATTGTTCTCCCAGCTGATGAATTGTAGCAGTCGAGTAAACAAATTTTCCTAATCTTTCTGTTCAAGCGCCATCTAC,0.722
3,GATGATTGTTCTCCCAGCTGATGAATTCAGGTAATCGAGTAAACAAATTTTCCTAATCTTTCTGTTCAAGCGCCATCTAC,0.466
4,GATGATTGTTCTCCCAGCTGATGAATTGCTAGGGTCGAGTAAACAAATTTTCCTAATCTTTCTGTTCAAGCGCCATCTAC,0.463
5,GATGATTGTTCTCCCAGCTGATGAATTTAGTTGATCGAGTAAACAAATTTTCCTAATCTTTCTGTTCAAGCGCCATCTAC,3.09
6,GATGATTGTTCTCCCAGCTGATGAATTTCTATCGTCGAGTAAACAAATTTTCCTAATCTTTCTGTTCAAGCGCCATCTAC,0.348
7,GATGATTGTTCTCCCAGCTGATGAATTGGAAGAATCGAGTAAACAAATTTTCCTAATCTTTCTGTTCAAGCGCCATCTAC,0.188
8,GATGATTGTTCTCCCAGCTGATGAATTGCTGCGCTCGAGTAAACAAATTTTCCTAATCTTTCTGTTCAAGCGCCATCTAC,0.822
9,GATGATTGTTCTCCCAGCTGATGAATTGCGGATCTCGAGTAAACAAATTTTCCTAATCTTTCTGTTCAAGCGCCATCTAC,0.645
10,GATGATTGTTCTCCCAGCTGATGAATTTCAACGGTCGAGTAAACAAATTTTCCTAATCTTTCTGTTCAAGCGCCATCTAC,0.241
11,GATGATTGTTCTCCCAGCTGATGAATTGGAGTGATCGAGTAAACAAATTTTCCTAATCTTTCTGTTCAAGCGCCATCTAC,0.46
12,GATGATTGTTCTCCCAGCTGATGAATTCTAGCTCTCGAGTAAACAAATTTTCCTAATCTTTCTGTTCAAGCGCCATCTAC,0.384
13,GATGATTGTTCTCCCAGCTGATGAATTTTTTGCTTCGAGTAAACAAATTTTCCTAATCTTTCTGTTCAAGCGCCATCTAC,0.306
14,GATGATTGTTCTCCCAGCTGATGAATTCCCGGCCTCGAGTAAACAAATTTTCCTAATCTTTCTGTTCAAGCGCCATCTAC,0.296
15,GATGATTGTTCTCCCAGCTGATGAATTTCCAGCATCGAGTAAACAAATTTTCCTAATCTTTCTGTTCAAGCGCCATCTAC,0.656
16,GATGATTGTTCTCCCAGCTGATGAATTTTTGTCGTCGAGTAAACAAATTTTCCTAATCTTTCTGTTCAAGCGCCATCTAC,0.451
